Results: the supplement of paper PMC3334620
In all, about 33,000 sequences were measured (“E-score (-0.5 to 0.5)”: median about -0.054, highest 2% from about 0.35 on). Some of the results follow.

target: T1, Stb5 (UniProt P38699); experiment: PBM E-score (8-mer binding enrichment) (E-score (-0.5 to 0.5)); higher = stronger / more preferred TF binding; most listed sequences are background and not binding sites; conditions: protein concentration: 200 nM; construct: GST-full length
T1 sequence: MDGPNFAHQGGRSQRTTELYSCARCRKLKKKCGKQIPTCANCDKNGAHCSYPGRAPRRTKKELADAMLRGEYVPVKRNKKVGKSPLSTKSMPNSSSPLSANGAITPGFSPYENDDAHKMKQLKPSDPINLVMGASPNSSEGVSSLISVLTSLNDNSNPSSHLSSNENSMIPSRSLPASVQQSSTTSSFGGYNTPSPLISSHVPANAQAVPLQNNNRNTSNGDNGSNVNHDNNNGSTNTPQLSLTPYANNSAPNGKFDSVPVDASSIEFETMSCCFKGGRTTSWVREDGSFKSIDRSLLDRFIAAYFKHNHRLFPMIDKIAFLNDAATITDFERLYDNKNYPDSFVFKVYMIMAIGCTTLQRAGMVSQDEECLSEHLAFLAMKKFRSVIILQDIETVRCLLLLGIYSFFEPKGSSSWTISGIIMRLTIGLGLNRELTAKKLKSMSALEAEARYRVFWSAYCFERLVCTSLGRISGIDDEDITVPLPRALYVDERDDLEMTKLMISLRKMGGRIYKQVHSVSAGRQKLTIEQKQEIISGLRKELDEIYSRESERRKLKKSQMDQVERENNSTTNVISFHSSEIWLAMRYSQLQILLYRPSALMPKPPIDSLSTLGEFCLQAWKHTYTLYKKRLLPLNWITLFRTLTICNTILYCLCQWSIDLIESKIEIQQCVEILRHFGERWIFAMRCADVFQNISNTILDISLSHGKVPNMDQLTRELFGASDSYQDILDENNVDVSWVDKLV
Procedure, shortened: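 For each ungapped eight-base word taken together with its reverse complement, the Universal PBM Analysis Suite assigned an E-score. Binding data came from GST-tagged yeast transcription factors, applied at about 100-200 nM, on universal all-10-mer Agilent arrays made double-stranded by primer extension. Fluorescent anti-GST marked bound protein, and scans were normalised with masliner.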

Sequence	PBM E-score
TGGGAACA	-0.159
CAACTTCA	-0.224
AAAGGGCA	-0.138
CTGCTTAC	-0.0797
ACAACAGC	0.0134
AGCCCACG	-0.0497
GAACCCGA	0.0501
CAGAACGC	-0.0861
GCACTACC	-0.055
AAAAGAAA	0.134
GCAATCCC	0.282
GAATGAAC	-0.141
AGGTAACA	-0.111
ACAGTCGA	-0.143
AAGCAGCG	0.0849
CTGTTCTC	-0.0311
ATTCCTGC	-0.148
CGACAAAG	-0.0343
AAGTTTTC	0.0659
CGCGAACC	0.044
CAAATCTA	-0.239
GAGTCTCC	0.084
CCCTCGGC	0.0313
GCAAACAC	0.0822
ACCTACAG	-0.00245

Sequence	PBM E-score
CTCCGTGA	0.19
GTACTAAC	0.0231
CATCAAGG	-0.222
CCAATTAC	-0.0408
GTCGCTGA	-0.121
GACCACAA	-0.0305
AATGGTAG	-0.0922
ACATACAG	-0.102
GAGACTAC	-0.214
AAGACTGA	-0.216
CCGAAAAC	0.123
ACCCTTTA	0.00637
CAATATCG	-0.0398
AGCCCCCC	-0.282
ACGGCAAA	0.235
GCTTAGGA	-0.0154
ATTATAAG	0.11
CGGAGCCA	0.294
CCATTACA	-0.0115
GAGGGCAC	-0.252
CATCGTGC	-0.0642
AACCGTCG	0.212
CCTATGCG	-0.0329
ATCCCGCA	0.181
GTCCTTGA	-0.124

Sequence	PBM E-score
AAAAGCGA	0.0828
AACCCCCC	0.0126
ATGCCCCC	-0.0359
CGCAGAGC	-0.0211
CTAACTGC	-0.031
GCATCTTA	-0.0706
CTTTAACC	0.0344
AACTATGC	0.0185
AAGCCAAA	-0.234
ACGTTGAG	-0.0677
CCGGAAGG	0.142
TAGAATAA	0.0848
CATAGCCC	0.0349
ATAAACTG	-0.00234
CATCTGGC	0.0795
AAATTATA	0.212
CATTTCGA	-0.142
GAGCGGGA	0.249
TCATTGAA	-0.135
CTGGAATC	-0.131
GGGCACAC	-0.0897
CACAGGCC	-0.0705
AAATGCTG	-0.0926
AGCGATGG	-0.0413
CTGGCCGC	-0.147

Sequence	PBM E-score
CTCAGTAA	-0.0363
GAATAAGA	0.0303
CTTGGTGA	0.0226
CCTGAGTA	-0.104
AATTAAGC	0.12
AGTAGTCC	0.074
GCTCGTGA	-0.0398
ACCACGAT	-0.261
AATTCTTC	0.213
CTCTAGTA	-0.055
CTCTAACA	-0.103
CATTCTGG	-0.189
CTGAAGGA	-0.15
AAGTGGCG	0.026
CGATATGC	0.0672
GGTTCTAA	0.269
CATTACAC	-0.0322
CCTCTTTC	-0.126
CAGTTTGG	-0.175
GCGTGAGC	0.11
GTCCACCA	0.0514
ATTCCCGA	0.379
ACGTTTAC	-0.111
AATTAAAA	-0.0448
CATACACA	-0.231

Sequence	PBM E-score
TGTTTTAA	0.0881
CGAATGGA	-0.115
AATGAATG	-0.0477
CCTCGGTC	0.0945
CTTAGAAC	0.0364
CATTAGAG	-0.118
AGACTCAA	-0.176
CTAAAACA	0.149
ATGTCGAA	-0.0864
CATCCGGA	0.235
ACCCACCA	-0.0841
TACACTCA	-0.284
GGGGCGGA	0.293
AGAGCCTG	-0.307
GCAATGCA	-0.0992
ACTGGTTG	-0.0594
GAAAATGC	-0.14
AGTCAGAC	-0.126
ATCAACGG	0.203
CCTATCAG	-0.131
CAGATACC	-0.0513
AGCCGATC	0.0924
AACCCCTA	0.0625
GCCAGCGC	-0.00309
ACAATTAC	-0.226

Sequence	PBM E-score
TCTAAGAA	0.0218
ACTCGTAG	-0.234
AGACCGCG	0.297
GCCGGGCA	0.236
AGAGATAG	-0.105
ATACTTGA	-0.181
AAGGTACG	-0.0362
ACTTTGGG	-0.0994
GTGAATGA	0.0669
CAGACTGC	-0.228
CCCTTGAA	-0.0496
ATCCACCG	0.219
ACCGCTAT	0.33
TAAGGAGA	-0.00153
ATTTGTGC	-0.0961
CCACCTGG	-0.266
CGTGGTAA	-0.172
ATGTTTCG	-0.0593
AGTCTTAC	-0.185
ACGTCCGA	0.333
AGCTTGCA	-0.0865
AAGTTTGA	-0.112
CACGAGCC	-0.141
AATCGTGT	0.116
AAGATGTC	-0.0504

Sequence	PBM E-score
AAGCACAT	-0.0767
CTTTCCAA	0.0736
AACTCGGA	0.166
AGACGTCA	-0.2
CATGGTGG	-0.116
GCAGACCC	-0.0859
CGTATTCC	0.0717
AGTCCATA	-0.172
AATCTTAC	0.065
CGGCAGCC	0.0878
GATCCGAC	0.23
ACTCGGCT	-0.161
CTCCAGGC	-0.0397
CTTGCGGC	0.14
AATCCCGG	0.352
GGCAGCAA	-0.00028
CTTCTGCA	0.0835
GCGAACGA	-0.206
ATGCGACA	-0.026
ACACCCTC	-0.162
GGCCGGCC	0.15
ACAATTTA	-0.148
AACGCACG	0.0412
TCACACAA	-0.366
GAATCTGA	-0.0628

Sequence	PBM E-score
ACAGGGAG	-0.0371
GGCTGTCA	-0.228
CCGAACTC	0.0675
AGTGCAGG	-0.176
AGATACCA	-0.0825
CCATGTAA	0.0972
ACTCTCAT	-0.155
AGCGGAAA	0.152
ATACCTTA	0.00381
TAAGGCAA	-0.133
AGTGTTAG	-0.243
TCAGGCCA	-0.064
CCACGGCA	0.151
AGTCATTG	-0.27
AGAGATTA	-0.226
ACCCGACG	0.287
GCGCCTAA	0.0692
ACTAACCA	-0.168
CATAGGAG	-0.203
CACCGAAA	0.305
ATCTGCGG	0.257
ACCAATTG	-0.147
CTCACAGC	-0.053
AGAACCGG	0.337
ATCCCCAG	-0.132

Sequence	PBM E-score
ACGCCTCC	-0.0993
AAATCCTA	0.0685
ACTGAAGA	-0.0507
AGGGGGAG	-0.185
AGCCGTTG	-0.044
CCCGGCGC	0.231
CCGTTGCC	0.221
ATCTGAAT	-0.103
AAAGTTTC	-0.23
GGCAATGA	-0.223
CAGGTGAG	-0.302
GAGTCGCA	-0.194
GGCCCCAC	-0.111
CTGACTTC	0.00183
CACGCTGG	-0.14
CAAGTACA	-0.12
CATCAGGG	-0.278
AGCAACCG	0.0278
CCGATCCA	0.181
